Results taken from PubChem BioAssay AID588855 (National Center for Advancing Translational Sciences (NCATS), 2011).
Among all 410,000 compounds or so, about 5,000 (1.2%) were called active. This list was built around the results that the source calls inconclusive (neither active nor inactive); the mix of calls is not that of the screen. Calls follow the shape of the dose curve; as a rule, active = well fitted inhibition curve with a large enough effect; inconclusive = small, poorly fitted or top-dose-only effect; inactive = no such curve, though single readings can be large or run the other way. Where the call is inconclusive, the potency comes from a doubtful curve fit.

Assay: qHTS for Inhibitors of TGF-b; also: nearly all actives have a fitted effect of over 65% in size
Details: HepG2 CAGA-GFP TGF-b/SMAD3 reporter, GFP fluorescence, 18 h, TGF-beta stimulated, 500 pg/mL final; series mostly up to 46.1 µM; activity, negative = inhibition: at the top concentration
Method in brief: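 Smad-responsive CAGA-GFP expression was quantified in HEPG2 cells exposed to compounds and 500 pg/mL final TGF-beta for 18 h at 37 degrees C; unstimulated wells defined full inhibition.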
% is scaled to controls: 0 for no effect and ±100 for the full control effect; potency is read from the fitted curve at half-maximal effect; tags tell the direction and shape of the fitted curve.

Row | SMILES | Potency | activity, negative = inhibition
1 | CCOC(=O)c1ccc(CNc2ncnc3nc[nH]c23)cc1 | inconclusive: 22.4 µM [inhibitor, single point] | 
2 | Cc1ccc[n+](C(C(=S)NCc2ccco2)=C([O-])c2ccccc2Cl)c1 |  | inactive: 3.53%
3 | COc1ccc(C2CC(c3ccc(Br)cc3)=NN2C(=O)c2cccnc2)cc1 (stereo unspecified) | inconclusive: 12.6 µM [inhibitor, partial curve, poor fit] | 
4 | Cc1cccc(Cn2c(-c3ccc[nH]c3=O)nc3ccccc32)c1 |  | inactive: -5.67%
5 | CCOc1cc(CNCCO)cc(Br)c1OCc1ccccc1Cl | inconclusive: 35.5 µM [inhibitor, single point] | 
6 | CN1CCN(c2nc3c(c(=O)[nH]c(=O)n3C)n2Cc2ccc([N+](=O)[O-])cc2)CC1 |  | inactive: 10.6%
7 | Cc1nc2c(n1C1CCCCC1)C(=O)c1ccccc1C2=O | inconclusive: 28.2 µM [inhibitor, single point] | 
8 | CC[n+]1ccc(C[n+]2ccccc2)c2ccccc21 |  | inactive: -38.2%
9 | COc1ccc(Cl)cc1NC(=O)c1c(NCc2sccc2C)sc2c1CCCC2 | inconclusive: 35.5 µM [inhibitor, single point] | 
10 | COc1ccccc1NC(=O)N1CCN(c2cc(-c3ccccc3)nc3ncnn23)CC1 |  | inactive: -20%
11 | Cc1ccc(-c2noc(CCC(=O)N3CCN(c4cc(C)ccc4C)CC3)n2)cc1 | inconclusive: 25.1 µM [inhibitor, single point] | 
12 | Cc1nnn(C23CC4CC(CC(CC(=O)Nc5ccc(C)c(Cl)c5)(C4)C2)C3)n1 | inconclusive: 35.5 µM [inhibitor, single point] | 
13 | CC(=O)Nn1c(-c2ccccc2)cc2ccccc21 | inconclusive: 35.5 µM [inhibitor, single point] | 
14 | CC(=O)Nc1ccc(S(=O)(=O)N2CCCc3ccccc32)cc1 | inconclusive: 17.8 µM [inhibitor, single point] | 
15 | COc1ccc(OC)c(CN2CCN(Cc3cc(=O)oc4cc(O)ccc34)CC2)c1 |  | inactive: 0.872%
16 | CCN(C(=O)Cn1c(=O)oc2cc(Cl)ccc21)c1cccc(C(F)(F)F)c1 | inconclusive: 35.5 µM [inhibitor, single point] | 
17 | COc1nc(=O)n(C2C=CC(=O)O2)cc1F (stereo unspecified) | inconclusive: 12.6 µM [inhibitor, partial curve, poor fit] | 
18 | CCOC(=O)c1cc2c(=O)n3ccccc3nc2n(CC(C)C)c1=NC(=O)c1cc2ccccc2o1 |  | inactive: 6.9%
19 | N#CC1=C(SCC(=O)c2ccccc2)NC2=C(C(=O)CCC2)C1c1ccco1 (stereo unspecified) |  | inactive: -3.64%
20 | COc1ccc(OC)c(NC(=O)NCc2cccnc2)c1 | inconclusive: 4.47 µM [inhibitor, full curve] | 
21 | COc1ccc(CCNC(=O)C/C(C)=N/NC(=O)c2ccc(N)cc2)cc1OC | inconclusive: 6.31 µM [inhibitor, single point] | 
22 | CCc1nc(N2CCCCC2C)c2oc3ccccc3c2n1 (stereo unspecified) |  | inactive: -13.5%
23 | CCn1cc(C(=O)N2CCN(c3ccccn3)CC2)c(=O)c2cc(S(=O)(=O)N3CCC(C)CC3)ccc21 | inconclusive: 31.6 µM [inhibitor, single point] | 

Row | SMILES | Potency | activity, negative = inhibition
24 | CSc1nc(-c2ccc(C)cc2)nc(N)c1C#N | inconclusive: 35.5 µM [inhibitor, single point] | 
25 | Cc1ccc(-n2ncc(C(=O)Nc3ccc4c(c3)OCO4)c2C2CCN(C(=O)OC(C)(C)C)CC2)cc1 | inconclusive: 2.82 µM [inhibitor, partial curve, poor fit] | 
26 | CN(C)c1ccc(/C=C/c2ccc3ccccc3[n+]2[O-])cc1 |  | inactive: 93.2%
27 | CNC(=S)Nc1ccc(C)cc1 |  | inactive: 0%
28 | CC[N+](CC)(CC)c1ccc(/C=C/c2ccc3ccccc3n2)cc1 | active: 6.31 µM | 
29 | CCOC(=O)CCC(=O)c1c(C)oc2ccc(OC)cc12 | inconclusive: 0.316 µM [inhibitor, full curve, poor fit] | 
30 | CC(C)(C)c1cc(NC(=O)Nc2ccc(Br)cc2Cl)no1 | inconclusive: 35.5 µM [inhibitor, single point] | 
31 | COc1ccc(N2CC(NC(=O)N3CCN(C(=O)c4ccco4)CC3)CC2=O)cc1OC (stereo unspecified) |  | inactive: 10.7%
32 | Oc1cccc2c(-c3nn[nH]n3)ccnc12 | inconclusive: 5.62 µM [inhibitor, single point] | 
33 | COC(=O)CNC(=O)C(C)(C)Oc1ccc(Cl)cc1 |  | inactive: -1.41%
34 | CCOc1ccc(-c2[nH]nc3c2C(c2cccnc2)C(C#N)=C(N)O3)cc1 (stereo unspecified) |  | inactive: 1.08%
35 | Cc1nn(Cc2ccccc2Cl)c(Cl)c1/C=C/C(=O)OCC(=O)NC1CCS(=O)(=O)C1 (stereo unspecified) |  | inactive: -26.2%
36 | COc1cccc(/C=N/N2CCN(c3ccncc3S(=O)(=O)N3CCCCC3)CC2)c1 |  | inactive: -2.97%
37 | COc1cc2c(cc1OC)C(COc1ccc([N+](=O)[O-])cc1)N(C(C)=O)CC2 (stereo unspecified) | inconclusive: 35.5 µM [inhibitor, single point] | 
38 | CCc1c(C#N)c(SCc2c(C)noc2C)nc2c1C(=O)CC(C)(C)C2 | inconclusive: 7.08 µM [inhibitor, partial curve] | 
39 | CC(=O)N(C)c1ccc(N2CCOCC2)c2c1C(=O)c1ccccc1C2=O | inconclusive: 35.5 µM [inhibitor, single point] | 
40 | COc1cccc(/C=C/c2ccnc3ccccc23)c1OC | inconclusive: 35.5 µM [inhibitor, single point] | 
41 | CCOC(=O)C1C(=O)CC(C)(O)C(C(=O)OCC)C1c1ccco1 (stereo unspecified) |  | inactive: 8.29%
42 | S=C(NCCc1ccccc1)NCc1cccc(Cl)c1 | active: 12.6 µM | 
43 | O=C(O)CCn1cc(/C=C/C(=O)c2ccc(Cl)cc2)c(-c2ccc(Br)cc2)n1 | inconclusive: 20 µM [inhibitor, partial curve, poor fit] | 
44 | Cc1[nH]c2ccccc2c1SCc1nnc(SCc2ccc(Cl)cc2)n1C | inconclusive: 35.5 µM [inhibitor, single point] | 
45 | CC1Cc2cc(S(=O)(=O)N3CCN(c4ccc(Cl)cc4)CC3)ccc2N1C(=O)C1CC1 (stereo unspecified) | inconclusive: 1 µM [inhibitor, full curve, poor fit] | 
46 | CC(=O)Nc1ccc(Oc2ccc3nc(C)[nH]c3c2)cc1 | inconclusive: 0.794 µM [inhibitor, full curve, poor fit] | 
